# The supplement of paper PMC3334620
# The full ranking holds about 33,000 sequences; the median of “E-score (-0.5 to 0.5)” is about -0.017, and the highest 2% start at about 0.3. The list shows a part of the results.
# Molecular target: T1, Sut1 (UniProt P53032)
# T1 sequence: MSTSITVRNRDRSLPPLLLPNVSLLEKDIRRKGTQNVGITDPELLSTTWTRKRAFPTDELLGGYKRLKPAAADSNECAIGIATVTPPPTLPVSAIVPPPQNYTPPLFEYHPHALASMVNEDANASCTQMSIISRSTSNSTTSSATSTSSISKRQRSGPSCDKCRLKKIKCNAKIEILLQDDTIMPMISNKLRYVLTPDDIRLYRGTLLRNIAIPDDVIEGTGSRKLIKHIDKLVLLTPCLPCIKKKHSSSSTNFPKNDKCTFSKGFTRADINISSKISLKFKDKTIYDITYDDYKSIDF
# Experiment: PBM E-score (8-mer binding enrichment) (E-score (-0.5 to 0.5)); higher = stronger / more preferred TF binding; most listed sequences are background and not binding sites
# Details: protein concentration: 200 nM; construct: GST-full length
# How it was run: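 Universal all-10-mer Agilent arrays, double-stranded by primer extension on fresh or once-stripped slides, were probed with about 100-200 nM GST-tagged yeast transcription factors made by PURExpress. Fluorescent anti-GST detected bound protein, and masliner normalised the scans. E-scores from the Universal PBM Analysis Suite were given to each ungapped eight-base word pooled with its reverse complement.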
row,Sequence,PBM E-score
1,ACATCCAT,0.0429
2,AGCCTCTG,-0.255
3,CAGGTGTC,-0.256
4,CCCAAAGA,0.0185
5,AACTGCTA,0.0448
6,GAAAGCGA,0.0761
7,ACACAATA,0.213
8,TACACGCA,-0.198
9,TAAGCCAA,0.0722
10,GACAGTGA,-0.0429
11,AGAATGTC,-0.0101
12,TACGGACA,0.282
13,ATCTTGTA,0.112
14,ATAAGTCC,0.317
15,ACCCAGAT,-0.0968
16,CGGACGTC,0.0183
17,GACGTGAC,-0.0943
18,GAACCACA,-0.0354
19,GAGAACAC,0.00632
20,CGCCATAA,-0.126
21,TCGAAGCA,-0.112
22,ACGGGATG,-0.254
23,CGTCGCAC,-0.192
24,CCTGTTCC,-0.133
25,GGGCAGTA,-0.0376

row,Sequence,PBM E-score
1,GGGTCACA,-0.288
2,CGGTACGC,0.0704
3,ATGGCATC,0.0898
4,GGAGCGAA,0.0455
5,ATCTATTC,0.176
6,GTATTTGA,0.102
7,TATTAAGA,0.112
8,AGATTTCA,0.149
9,CGCAGTAG,-0.101
10,AATCACTA,0.132
11,ATTGGGGA,-0.194
12,CATGAGCC,-0.195
13,TGCAGCCA,-0.204
14,CTAGTGAC,-0.0269
15,AGCCTTCA,0.0442
16,CATTGCAA,-0.0247
17,TAAAGCAA,0.209
18,CTCGCCCA,-0.242
19,AGGACGAA,0.101
20,AATGCCGT,0.133
21,TATCACCA,0.125
22,AGCCAGCT,-0.114
23,CGCATCGA,-0.0419
24,AACACCTC,-0.197
25,CTCGATGA,0.106

row,Sequence,PBM E-score
1,GGTACAAA,-0.0226
2,AATTGCCA,-0.0246
3,ATTGTCCG,0.359
4,CCATAGCG,-0.183
5,AAGGGCTG,-0.112
6,CCGATATC,0.17
7,GAAGATGC,-0.191
8,ACGCGGTG,-0.243
9,AATACAAA,0.348
10,CAGACAGG,-0.205
11,AGATTGGA,0.118
12,CCTATACC,-0.222
13,GGCGATCA,-0.151
14,CGCCAAAC,0.0669
15,GGAGGGAA,-0.105
16,GAACCTAA,-0.078
17,CAGGCCTC,-0.459
18,GCTCGACA,-0.207
19,CGAAACAC,0.0972
20,GACTTCCC,-0.111
21,AACAAGGC,-0.221
22,CACGATTC,0.0606
23,TATTCCGA,0.321
24,AACTTGCT,0.0522
25,CGCATAAC,0.108

row,Sequence,PBM E-score
1,ATTACGTC,-0.0174
2,TACTGCAA,-0.00385
3,ACCTGGAG,0.0444
4,TCCAGCCA,-0.196
5,ACCCTTGG,-0.289
6,AGCAAGGC,-0.251
7,CCAATCGC,0.0346
8,TACAGTGA,0.0108
9,TGCAGGCA,-0.194
10,GGCATAAC,0.0428
11,AACATGGG,-0.00269
12,CTGTCGGA,0.265
13,AAATGCAT,0.181
14,ATGACAGG,-0.167
15,ACACGTGG,-0.125
16,AGATGCTA,0.15
17,ACAAGTCA,-0.118
18,CCGTCTCG,-0.14
19,GTGCCGGA,0.259
20,CTAGAGGC,-0.201
21,CGCTTTTA,0.152
22,AGTGACGC,-0.13
23,AATATGAT,0.23
24,GTTCCTGA,-0.202
25,ATCACGGC,0.0173

row,Sequence,PBM E-score
1,AGTGCAGC,-0.194
2,ACGATCGA,0.00621
3,GCTTAACC,-0.0732
4,AACCACTA,0.0415
5,GAGTAAGA,0.165
6,GGACGGGA,-0.321
7,CACGCGCC,-0.0772
8,CGGTGTAA,0.034
9,AAAGTATT,0.205
10,GGTATAGA,-0.0386
11,ATTCGATC,0.0633
12,GACAGGCA,-0.149
13,ACTGAAGT,0.116
14,GTGGGTAA,-0.115
15,TAGGCCAA,-0.00442
16,ATCATAAG,0.183
17,AGCCCCGA,0.0858
18,GAGCAGGC,-0.287
19,GTTGGGAA,-0.0455
20,GAACAGAC,0.0707
21,AGCCGGGC,-0.143
22,GGGATATA,0.141
23,CGCTCAAC,-0.0527
24,AGCAGGAT,-0.0517
25,ACCCCCGC,-0.0707

row,Sequence,PBM E-score
1,ACATTCGA,0.167
2,ATAATAAT,0.295
3,GGCATTAA,-0.056
4,GGCTGCAC,-0.166
5,GATGCTTA,-0.0356
6,AGTCAACC,-0.141
7,GCGCAGAA,-0.0121
8,AAGTATCT,0.0258
9,ATGTTTAC,0.0198
10,CACGTCAG,-0.292
11,ATAACTAA,0.168
12,ACTGGTCC,-0.167
13,CGTAGGAG,-0.126
14,GGAGGTGA,0.0437
15,TCCATCAA,0.109
16,AAACCTTG,-0.0351
17,CATGTCTA,-0.118
18,AGAAGTCG,-0.0129
19,GTGGGCTA,-0.0686
20,CCCACCGG,0.133
21,GTGGATGA,-0.186
22,ACATGCAT,-0.0173
23,AAACAATG,0.121
24,AATAAATG,0.179
25,CGCCTGTA,-0.191

row,Sequence,PBM E-score
1,ATCCGGAG,0.414
2,CGGGCTGA,-0.248
3,AGACTTAA,-0.137
4,AATCTTAA,0.037
5,CGGCGAAA,0.0849
6,AGAAATAA,0.28
7,GCCATAGA,-0.242
8,AATGGTGA,-0.00114
9,TACGCTGA,0.14
10,ACAGGAGT,0.0194
11,AGCACGGC,-0.102
12,ACTTAGAA,0.0411
13,ATCCAATC,0.00305
14,GAGTCCCC,-0.188
15,ACTTTTAC,0.291
16,CAGCCTGA,-0.275
17,CCCATAAA,-0.0507
18,TTATGGAA,0.0859
19,GTCAGAGA,-0.143
20,ATGCAAAC,-0.084
21,ATTGACGA,0.0902
22,CTTCGAAA,0.00258
